# Assay results reported in PubChem BioAssay AID1508642 (National Center for Advancing Translational Sciences (NCATS), 2021).
# In all, about 43,000 compounds went through this assay and about 200 (0.47%) were called active. About 12% were inconclusive and are not listed. Calls follow the shape of the dose curve; as a rule, active = well fitted cell-killing curve with a large enough effect; inconclusive = small, poorly fitted or top-dose-only effect, or effect the other way; inactive = flat fitted curve, though single readings scatter. This is one part of the list.
# Assay: Cell viability qHTS assay in S16 Pmp22-F2sN cells; also: nearly all actives have a fitted effect of over 65% in size
# Settings: S16 Pmp22-F2sN Schwann cells (luciferase reporters placed in the Pmp22 gene) viability, CellTiter-Glo, 24 h; series mostly up to 57.5 µM; activity change, negative = cytotoxicity: at the top concentration
# Summary of the method: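 Luminescence from CellTiter-Glo, read by CCD camera after a 15 min room-temperature incubation, served as the viability signal. Reporter Schwann cells (S16 Pmp22-F2sN) had been treated with pin-transferred compounds for 24 h at 37C.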
# % is scaled to controls: 0 for no effect and ±100 for the full control effect.
row,SMILES,"activity change, negative = cytotoxicity"
1,COc1cccc(CNC(=O)c2ccc(-n3c(C)cc4c3CCC(C)C4)cc2)c1 (stereo not drawn),inactive: -3.53%
2,CC(C)NC(=O)c1ccc(NC(=O)N2CCCCc3ccccc32)cc1,inactive: -2.47%
3,CCOC(=O)c1[nH]c2ccccc2c1NC(=O)c1ccc(Br)cc1,inactive: 5.88%
4,COc1cccc(CNC(=O)C2CCN(S(=O)(=O)c3ccc4c(c3)CCCN4C(C)=O)CC2)c1,inactive: 5.92%
5,Cc1ccc2c(c1)N(CCCC(=O)Nc1cccc(C(F)(F)F)c1)C(=O)CO2,inactive: -18.2%
6,Cc1ccc(-c2cc(C(=O)NCc3ccccc3Cl)c3ccccc3n2)cc1C,inactive: -3.71%
7,O=C(Nc1ccccc1C(F)(F)F)n1ncc2cc(Cl)ccc21,inactive: -2.96%
8,COc1ccc2cc3c(N)nn(C(=O)c4ccc(OC)c(OC)c4)c3nc2c1,inactive: -1.18%
9,CCOc1ccc(-c2nc3c(c(SCC(=O)N4CCCCC4)n2)Cc2cccc(OC)c2O3)cc1,inactive: 5.36%
10,Cc1ccccc1-c1nnn(CC(=O)Nc2sc3c(c2C#N)CCC(C(C)(C)C)C3)n1 (stereo not drawn),inactive: 8.33%
11,Cc1ccc2ncc(C(=O)Nc3ccc(OC(F)(F)F)cc3)c(=O)n2c1,inactive: 2.36%
12,O=c1[nH]c2ccc(NCc3ccc(-c4ccc(Br)cc4)o3)cc2[nH]1,inactive: -23%
13,O=C1CCCc2cc(S(=O)(=O)N3CCCC(C(=O)NCc4ccc(Cl)cc4)C3)ccc2N1 (stereo not drawn),inactive: 0.372%
14,COc1cc(OC)cc(-c2nc(-c3ccc4c(c3)[nH]c(=O)n4C)no2)c1,inactive: 0.951%
15,CCc1ccc(NC(=O)Cn2c(=O)n(CCCCC(=O)NCCc3ccc(Cl)cc3)c(=O)c3ccccc32)cc1,inactive: 10.3%
16,O=C(NCC(c1ccc(Cl)cc1)N1CCOCC1)c1ccccc1F (stereo not drawn),inactive: 0.278%
17,CCOc1ccc(-c2nnc(SCC(=O)Nc3cccc(OC)c3)nc2-c2ccc(OCC)cc2)cc1,inactive: 0.945%
18,COc1ccc(C(=O)NCC(c2ccc3c(c2)OCO3)N2CCN(c3ccccc3F)CC2)cc1 (stereo not drawn),inactive: -21.1%
19,O=C(COc1ccc([N+](=O)[O-])cc1)Nc1nc2c(s1)CCCC2,inactive: 0.876%
20,COc1cccc(C2CC(=O)Nc3c2c(=O)[nH]c2nc4ccccc4n32)c1 (stereo not drawn),inactive: 1.19%
21,COc1ccc(Cn2c(C(=O)O)c(CNC3CCCC3)c3ccc(OC)cc32)cc1,inactive: 4.55%
22,CCn1c(=O)cc(SCC(=O)NCc2cccc(Cl)c2)c2ccccc21,inactive: -8.84%
23,COc1ccccc1C(=O)N1c2ncnn2C2(CCCCC2)[C@@H]2CCCC[C@@H]21,inactive: -13.7%
24,CCOC(=O)c1ccc(NC(=O)C(CC)Sc2nc3ccncc3[nH]2)cc1 (stereo not drawn),inactive: -10.6%

row,SMILES,"activity change, negative = cytotoxicity"
1,CCN1C(=O)c2ccccc2Sc2ccc(NC(=O)N3CCN(c4cc(C)ccc4C)CC3)cc21,inactive: -19.5%
2,Cc1cc(C)cc(-n2c(C)cc(C(=O)C(=O)Nc3ccccc3F)c2C)c1,inactive: 1.2%
3,Cc1ccc(CNC(=O)Nc2cc(C(=O)NCc3ccc(C(C)C)cc3)ccc2N2CCCC2)cc1,inactive: -4.51%
4,CCCCOc1ccc(C(=O)Nc2ccc(-c3cc4ccccc4oc3=O)cc2)cc1,inactive: 3.87%
5,CC(C)c1ccc(OCC(=O)NCCS(=O)(=O)N2CCN(c3ccc(F)cc3)CC2)cc1,inactive: 10.4%
6,Cc1c(Cl)cccc1NC(=O)c1ccc2c(c1)CCCN2S(C)(=O)=O,inactive: -5.01%
7,CCOc1ccc(-c2nn(-c3ccccc3)cc2C2NC(=O)NC(C)=C2C(=O)OC(C)C)cc1 (stereo not drawn),inactive: -0.679%
8,COc1ccccc1NC(=O)CSc1nncn2c1cc1sccc12,inactive: 13.8%
9,Cc1ccccc1CNC(=O)c1ccc2nc(SCc3ccc(F)cc3)n(C)c2c1,inactive: -0.672%
10,CCOCCCNC(=O)C(c1ccccc1)N(Cc1ccc2c(c1)OCO2)C(=O)c1ccc(NC(C)=O)cc1 (stereo not drawn),inactive: -1.18%
11,CCc1ccccc1NC(=O)Cn1cc(S(=O)(=O)N2CCCC2)c(S(=O)(=O)N2CCCC2)c1,inactive: -0.751%
12,O=C(c1ccco1)N(Cc1cccnc1)c1nc2c(F)cc(F)cc2s1,inactive: -12.6%
13,Cc1ccc2cccc(NC(=O)c3ccc(OC(C)C)cc3)c2n1,inactive: -17.3%
14,O=C(NCc1ccc2c(c1)OCO2)c1ccc2c(c1)N(Cc1ccccc1F)C(=O)c1ccccc1S2,inactive: 1.24%
15,Cc1ccccc1CN1C(=O)c2ccccc2S(=O)c2ccc(C(=O)NCc3ccc(Cl)cc3)cc21 (stereo not drawn),inactive: -17%
16,CCCOc1ccc(-c2cccc(NS(=O)(=O)c3ccccc3)c2)nn1,inactive: 0.86%
17,Cc1ccc(-n2ncc3c(NCc4ccccc4)ncnc32)cc1Cl,inactive: -1.15%
18,Cc1ccc(-n2ccn(CC(=O)NCCc3ccccc3)c(=O)c2=O)cc1C,inactive: 1.15%
19,CCCCOc1ccc(C(=O)N(Cc2ccc(N(C)C)cc2)Cc2ccco2)cc1,inactive: 1.86%
20,CC(C)(C)c1ccc(-c2nc(NC(=O)CSc3ncnc4sc5c(c34)CCCC5)ns2)cc1,inactive: -3.57%
21,COc1ccc(NC(=O)CN(C)S(=O)(=O)c2ccc3c(c2)CCCN3C(C)=O)cc1,inactive: -9.63%
22,CCc1ccc(NC(=O)CSc2nccn2-c2ccc(F)cc2)cc1,inactive: -11.2%
23,COc1ccc(N2CC(NC(=O)/C=C\c3ccc4c(c3)OCO4)CC2=O)cc1OC (stereo not drawn),inactive: 14.3%
24,Cc1ccccc1Cn1c(SCc2ccc(C(=O)NC3CCCCC3)cc2)nc2ccncc21,inactive: 16.2%
